# Source: the supplement of paper PMC8728848
# Some of the results follow.
# B1: HHA (Hippeastrum hybrid) (protein)
# chain: MQQDCNLVLYDVDKPIWASNTGGLARDCHLNMQSDGNLVVYAPRNQVIWASNTQGENGNYVCILQKDRNVVIYGTARWATGTNIHGAGIVGVPGSAPQNTTAEMIKLVRKYLITK
# Key:
# Test in all cases: glycan array binding signal (z-score within array); higher = stronger binding
# Conditions in all cases: glycan notation: IUPAC condensed, linker removed
# [1] = target: Gal(a1-3)Gal(b1-3)[Fuc(a1-4)]GlcNAc(b1-2)Man(a1-3)[Gal(a1-3)Gal(b1-3)[Fuc(a1-4)]GlcNAc(b1-2)Man(a1-6)]Man(b1-4)GlcNAc(b1-4)GlcNAc
# How it was run: (§1)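 Glycan array data came from 3228 arrays in the Consortium for Functional Glycomics database, and only arrays with an available protein sequence were kept. Glycan names were put into IUPAC-condensed notation, and columns mapping to the same glycan were averaged. The binding signal is a within-array Z-score, averaged across arrays of one protein sequence run at different concentrations or buffers and across linkers. A negative Z-score can be read as non-binding.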
# Gal(a1-3)Gal(b1-4)Glc = target: Gal(a1-3)Gal(b1-4)Glc
# How it was run: as §1
# Gal(a1-3)Gal(b1-4)GlcNAc = target: Gal(a1-3)Gal(b1-4)GlcNAc
# How it was run: as §1
# [2] = target: Gal(a1-3)Gal(b1-4)GlcNAc(b1-2)Man
# How it was run: as §1
# [3] = target: Gal(a1-3)Gal(b1-4)GlcNAc(b1-2)Man(a1-3)[Gal(a1-3)Gal(b1-4)GlcNAc(b1-2)Man(a1-6)]Man(b1-4)GlcNAc(b1-4)GlcNAc
# How it was run: as §1
# [4] = target: Gal(a1-3)Gal(b1-4)GlcNAc(b1-3)GalNAc
# How it was run: as §1
# [5] = target: Gal(a1-3)Gal(b1-4)GlcNAc(b1-6)GalNAc
# How it was run: as §1
# [6] = target: Gal(a1-3)Gal(b1-4)[Fuc(a1-3)]GlcNAc
# How it was run: as §1
# [7] = target: Gal(a1-3)Gal(b1-4)[Fuc(a1-3)]GlcNAc(b1-2)Man(a1-3)[Gal(a1-3)Gal(b1-4)[Fuc(a1-3)]GlcNAc(b1-2)Man(a1-6)]Man(b1-4)GlcNAc(b1-4)GlcNAc
# How it was run: as §1
# Gal(a1-3)GalNAc = target: Gal(a1-3)GalNAc
# How it was run: as §1
# [8] = target: Gal(a1-3)[Gal(a1-4)]Gal(b1-4)GlcNAc
# How it was run: as §1
# [9] = target: Gal(a1-4)Gal(b1-3)GlcNAc(b1-2)Man(a1-3)[Gal(a1-4)Gal(b1-3)GlcNAc(b1-2)Man(a1-6)]Man(b1-4)GlcNAc(b1-4)GlcNAc
# How it was run: as §1
# Gal(a1-4)Gal(b1-4)Glc = target: Gal(a1-4)Gal(b1-4)Glc
# How it was run: as §1
# Gal(a1-4)Gal(b1-4)GlcNAc = target: Gal(a1-4)Gal(b1-4)GlcNAc
# How it was run: as §1
# [10] = target: Gal(a1-4)Gal(b1-4)GlcNAc(b1-2)Man(a1-3)[Gal(a1-4)Gal(b1-4)GlcNAc(b1-2)Man(a1-6)]Man(b1-4)GlcNAc(b1-4)GlcNAc
# How it was run: as §1
# [11] = target: Gal(a1-4)Gal(b1-4)GlcNAc(b1-3)Gal(b1-4)Glc
# How it was run: as §1
# Gal(a1-4)GlcNAc = target: Gal(a1-4)GlcNAc
# How it was run: as §1
# Gal(a1-6)Glc = target: Gal(a1-6)Glc
# How it was run: as §1
# Gal(b1-2)Gal = target: Gal(b1-2)Gal
# How it was run: as §1
# Gal(b1-3)Gal = target: Gal(b1-3)Gal
# How it was run: as §1
# Gal(b1-3)Gal(b1-4)GlcNAc = target: Gal(b1-3)Gal(b1-4)GlcNAc
# How it was run: as §1
# Gal(b1-3)GalNAc = target: Gal(b1-3)GalNAc
# How it was run: as §1
# [12] = target: Gal(b1-3)GalNAc(a1-3)[Fuc(a1-2)]Gal(b1-4)Glc
# How it was run: as §1
# [13] = target: Gal(b1-3)GalNAc(a1-3)[Fuc(a1-2)]Gal(b1-4)GlcNAc
# How it was run: as §1
# Gal(b1-3)GalNAc(b1-3)Gal = target: Gal(b1-3)GalNAc(b1-3)Gal
# How it was run: as §1
# [14] = target: Gal(b1-3)GalNAc(b1-3)Gal(a1-4)Gal(b1-4)Glc
# How it was run: as §1
# [15] = target: Gal(b1-3)GalNAc(b1-4)Gal(b1-4)Glc
# How it was run: as §1
# [16] = target: Gal(b1-3)GalNAc(b1-4)[Neu5Ac(a2-3)]Gal(b1-4)Glc
# How it was run: as §1
# Gal(b1-3)GlcNAc = target: Gal(b1-3)GlcNAc
# How it was run: as §1
# [17] = target: Gal(b1-3)GlcNAc(a1-3)Gal(b1-4)GlcNAc
# How it was run: as §1
# [18] = target: Gal(b1-3)GlcNAc(a1-6)Gal(b1-4)GlcNAc
# How it was run: as §1
# Gal(b1-3)GlcNAc(b1-2)Man = target: Gal(b1-3)GlcNAc(b1-2)Man
# How it was run: as §1
# [19] = target: Gal(b1-3)GlcNAc(b1-2)Man(a1-3)[Gal(b1-3)GlcNAc(b1-2)Man(a1-6)]Man(b1-4)GlcNAc(b1-4)GlcNAc
# How it was run: as §1
# [20] = target: Gal(b1-3)GlcNAc(b1-2)Man(a1-3)[Gal(b1-3)GlcNAc(b1-2)Man(a1-6)]Man(b1-4)GlcNAc(b1-4)[Fuc(a1-6)]GlcNAc
# How it was run: as §1
# [21] = target: Gal(b1-3)GlcNAc(b1-2)Man(a1-3)[GlcNAc(b1-4)][Gal(b1-3)GlcNAc(b1-2)Man(a1-6)]Man(b1-4)GlcNAc(b1-4)GlcNAc
# How it was run: as §1
# [22] = target: Gal(b1-3)GlcNAc(b1-2)[Gal(b1-3)GlcNAc(b1-6)]Man(a1-6)[Gal(b1-3)GlcNAc(b1-2)Man(a1-3)]Man(b1-4)GlcNAc(b1-4)GlcNAc
# How it was run: as §1
# [23] = target: Gal(b1-3)GlcNAc(b1-3)Gal(b1-3)GlcNAc
# How it was run: as §1
# [24] = target: Gal(b1-3)GlcNAc(b1-3)Gal(b1-4)Glc
# How it was run: as §1
# [25] = target: Gal(b1-3)GlcNAc(b1-3)Gal(b1-4)GlcNAc
# How it was run: as §1
# [26] = target: Gal(b1-3)GlcNAc(b1-3)Gal(b1-4)GlcNAc(b1-2)Man(a1-3)[Gal(b1-3)GlcNAc(b1-3)Gal(b1-4)GlcNAc(b1-2)Man(a1-6)]Man(b1-4)GlcNAc(b1-4)GlcNAc
# How it was run: as §1
# [27] = target: Gal(b1-3)GlcNAc(b1-3)Gal(b1-4)GlcNAc(b1-2)[Gal(b1-3)GlcNAc(b1-3)Gal(b1-4)GlcNAc(b1-6)]Man(a1-6)[Gal(b1-3)GlcNAc(b1-3)Gal(b1-4)GlcNAc(b1-2)Man(a1-3)]Man(b1-4)GlcNAc(b1-4)[Fuc(a1-6)]GlcNAc
# How it was run: as §1
# [28] = target: Gal(b1-3)GlcNAc(b1-3)Gal(b1-4)GlcNAc(b1-3)Gal(b1-4)GlcNAc(b1-2)[Gal(b1-3)GlcNAc(b1-3)Gal(b1-4)GlcNAc(b1-3)Gal(b1-4)GlcNAc(b1-6)]Man(a1-6)[Gal(b1-3)GlcNAc(b1-3)Gal(b1-4)GlcNAc(b1-3)Gal(b1-4)GlcNAc(b1-2)Man(a1-3)]Man(b1-4)GlcNAc(b1-4)[Fuc(a1-6)]GlcNAc
# How it was run: as §1
# [29] = target: Gal(b1-3)GlcNAc(b1-3)Gal(b1-4)GlcNAc(b1-6)[Gal(b1-3)GlcNAc(b1-3)]Gal(b1-4)Glc
# How it was run: as §1
# [30] = target: Gal(b1-3)GlcNAc(b1-3)Gal(b1-4)[Fuc(a1-3)]GlcNAc
# How it was run: as §1
# [31] = target: Gal(b1-3)GlcNAc(b1-3)Gal(b1-4)[Fuc(a1-3)]GlcNAc(b1-6)[Gal(b1-3)GlcNAc(b1-3)]Gal(b1-4)Glc
# How it was run: as §1
binder,measurement,setting,value
B1,glycan array binding signal (z-score),[1],0.654
same,glycan array binding signal (z-score),Gal(a1-3)Gal(b1-4)Glc,-0.201
same,glycan array binding signal (z-score),Gal(a1-3)Gal(b1-4)GlcNAc,-0.171
same,glycan array binding signal (z-score),[2],-0.205
same,glycan array binding signal (z-score),[3],1.42
same,glycan array binding signal (z-score),[4],-0.156
same,glycan array binding signal (z-score),[5],-0.209
same,glycan array binding signal (z-score),[6],-0.216
same,glycan array binding signal (z-score),[7],-0.182
same,glycan array binding signal (z-score),Gal(a1-3)GalNAc,0.093
same,glycan array binding signal (z-score),[8],-0.172
same,glycan array binding signal (z-score),[9],0.269
same,glycan array binding signal (z-score),Gal(a1-4)Gal(b1-4)Glc,-0.192
same,glycan array binding signal (z-score),Gal(a1-4)Gal(b1-4)GlcNAc,-0.183
same,glycan array binding signal (z-score),[10],0.121
same,glycan array binding signal (z-score),[11],-0.203
same,glycan array binding signal (z-score),Gal(a1-4)GlcNAc,-0.153
same,glycan array binding signal (z-score),Gal(a1-6)Glc,-0.21
same,glycan array binding signal (z-score),Gal(b1-2)Gal,-0.209
same,glycan array binding signal (z-score),Gal(b1-3)Gal,-0.212
same,glycan array binding signal (z-score),Gal(b1-3)Gal(b1-4)GlcNAc,-0.195
same,glycan array binding signal (z-score),Gal(b1-3)GalNAc,0.496
same,glycan array binding signal (z-score),[12],-0.206
same,glycan array binding signal (z-score),[13],-0.21
same,glycan array binding signal (z-score),Gal(b1-3)GalNAc(b1-3)Gal,-0.198
same,glycan array binding signal (z-score),[14],-0.199
same,glycan array binding signal (z-score),[15],-0.207
same,glycan array binding signal (z-score),[16],-0.209
same,glycan array binding signal (z-score),Gal(b1-3)GlcNAc,-0.205
same,glycan array binding signal (z-score),[17],-0.214
same,glycan array binding signal (z-score),[18],-0.207
same,glycan array binding signal (z-score),Gal(b1-3)GlcNAc(b1-2)Man,-0.213
same,glycan array binding signal (z-score),[19],0.434
same,glycan array binding signal (z-score),[20],-0.094
same,glycan array binding signal (z-score),[21],0.4
same,glycan array binding signal (z-score),[22],0.14
same,glycan array binding signal (z-score),[23],-0.206
same,glycan array binding signal (z-score),[24],-0.219
same,glycan array binding signal (z-score),[25],-0.208
same,glycan array binding signal (z-score),[26],0.063
same,glycan array binding signal (z-score),[27],1.54
same,glycan array binding signal (z-score),[28],1.31
same,glycan array binding signal (z-score),[29],-0.212
same,glycan array binding signal (z-score),[30],-0.204
same,glycan array binding signal (z-score),[31],-0.202
